Reference: PMC8971425
No constants are given. Whether binding was seen depends on the method and setting. Binding seen in cells or lysates may run through a third protein. Some results given as binding are weak or reduced against the parent protein; the word gives no strength. For some of these results: Sequences can lack the tags named with a protein.

Chains of the proteins cited; added tags and fusions are not shown. Residues count along the entry.
UniProt Q9NZQ7, residues 19-290: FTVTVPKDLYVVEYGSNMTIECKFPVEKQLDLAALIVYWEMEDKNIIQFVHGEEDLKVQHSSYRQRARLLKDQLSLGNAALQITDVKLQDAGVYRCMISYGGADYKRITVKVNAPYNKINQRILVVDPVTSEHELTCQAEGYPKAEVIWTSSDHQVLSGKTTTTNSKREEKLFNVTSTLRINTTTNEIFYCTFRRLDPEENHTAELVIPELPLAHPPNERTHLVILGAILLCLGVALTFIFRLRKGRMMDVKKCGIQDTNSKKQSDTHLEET

Assays:
GST-USP8 = target: T1, GST-USP8 (UniProt P40818); experiment: pull-down; bacterially purified recombinant GST or GST-USP8 incubated with lysates of 293T cells with ectopic expression of HA-PD-L1; immunoblot; only the target purified
T1 sequence: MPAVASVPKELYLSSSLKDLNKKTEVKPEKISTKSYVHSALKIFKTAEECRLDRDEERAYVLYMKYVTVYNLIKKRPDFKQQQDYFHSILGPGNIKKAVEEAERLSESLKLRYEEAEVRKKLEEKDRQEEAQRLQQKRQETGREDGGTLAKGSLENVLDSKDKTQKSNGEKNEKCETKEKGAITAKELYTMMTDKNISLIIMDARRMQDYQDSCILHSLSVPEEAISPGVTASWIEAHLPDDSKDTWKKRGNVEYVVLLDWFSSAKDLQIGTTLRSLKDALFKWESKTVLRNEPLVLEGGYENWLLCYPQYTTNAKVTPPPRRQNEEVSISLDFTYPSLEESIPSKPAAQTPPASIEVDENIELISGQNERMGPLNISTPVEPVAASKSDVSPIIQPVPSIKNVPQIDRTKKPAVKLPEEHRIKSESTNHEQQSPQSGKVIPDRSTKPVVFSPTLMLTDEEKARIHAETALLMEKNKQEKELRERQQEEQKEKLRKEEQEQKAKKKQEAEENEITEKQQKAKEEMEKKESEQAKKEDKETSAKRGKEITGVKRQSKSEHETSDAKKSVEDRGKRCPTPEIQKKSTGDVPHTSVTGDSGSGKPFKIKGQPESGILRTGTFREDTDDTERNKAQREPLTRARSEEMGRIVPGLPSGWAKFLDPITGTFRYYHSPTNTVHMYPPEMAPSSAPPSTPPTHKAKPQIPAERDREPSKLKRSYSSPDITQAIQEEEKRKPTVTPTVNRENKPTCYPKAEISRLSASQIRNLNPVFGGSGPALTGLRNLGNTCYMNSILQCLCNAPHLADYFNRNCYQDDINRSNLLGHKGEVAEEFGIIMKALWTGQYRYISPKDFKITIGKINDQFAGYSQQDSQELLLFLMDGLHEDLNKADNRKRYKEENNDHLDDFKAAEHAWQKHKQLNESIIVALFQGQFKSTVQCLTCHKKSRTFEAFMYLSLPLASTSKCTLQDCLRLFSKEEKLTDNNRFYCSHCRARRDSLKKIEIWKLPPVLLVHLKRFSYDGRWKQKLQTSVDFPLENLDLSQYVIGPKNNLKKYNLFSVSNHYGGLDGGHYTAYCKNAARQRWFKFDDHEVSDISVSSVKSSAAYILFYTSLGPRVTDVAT

[1] = target: T2, USP8 expressed in cells, construct not told (Fig. 5i; Supplementary Fig. 2c, 5l–n) (UniProt P40818); experiment: co-IP; 'in cells'; supplementary figures (2c, 3g, 3k, l, 5k) whose legends were not shown; immunoprecipitation as in the methods
T2 sequence: T1 sequence

[2] = target: T2, USP8 expressed in cells, construct not told (Fig. 5i; Supplementary Fig. 2c, 5l–n); experiment: co-IP; 'in cells'; gradient ectopic expression of the third protein (USP8, PD-L1 or TRAF6) while the interaction of the other two is read; Supplementary Fig. 5l–n, legends not shown
Flag-USP8 (WT) = target: T3, Flag-USP8 (WT) (UniProt P40818); experiment: co-IP; 293T cells co-transfected with the indicated constructs, 10 µM MG132 for 12 h before harvest; lysis in EBC buffer (50 mM Tris pH 7.5, 120 mM NaCl, 0.5% NP-40); bead-conjugated anti-Flag (Fig. 2a, 2f, 3j) or anti-HA (Fig. 5i) overnight at 4 °C; four washes with NETN buffer; immunoblot
T3 sequence: T1 sequence

[3] = target: T4, Flag-USP8 C-terminal domain (aa 715–1118) (UniProt P40818); experiment: as above
T4 sequence: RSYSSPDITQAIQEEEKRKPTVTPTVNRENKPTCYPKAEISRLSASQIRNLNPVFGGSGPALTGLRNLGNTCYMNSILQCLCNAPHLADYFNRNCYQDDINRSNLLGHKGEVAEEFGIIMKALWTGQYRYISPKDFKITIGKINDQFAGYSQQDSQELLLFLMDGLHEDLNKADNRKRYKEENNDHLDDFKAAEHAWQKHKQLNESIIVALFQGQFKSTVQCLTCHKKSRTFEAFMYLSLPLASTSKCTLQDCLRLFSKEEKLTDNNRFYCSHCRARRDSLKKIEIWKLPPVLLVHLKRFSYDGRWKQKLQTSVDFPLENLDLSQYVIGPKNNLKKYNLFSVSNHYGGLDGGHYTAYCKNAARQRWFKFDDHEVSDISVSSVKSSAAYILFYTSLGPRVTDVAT

[4] = target: T5, Flag-USP8 N-terminal domain (aa 1–313) (UniProt P40818); experiment: as above
T5 sequence: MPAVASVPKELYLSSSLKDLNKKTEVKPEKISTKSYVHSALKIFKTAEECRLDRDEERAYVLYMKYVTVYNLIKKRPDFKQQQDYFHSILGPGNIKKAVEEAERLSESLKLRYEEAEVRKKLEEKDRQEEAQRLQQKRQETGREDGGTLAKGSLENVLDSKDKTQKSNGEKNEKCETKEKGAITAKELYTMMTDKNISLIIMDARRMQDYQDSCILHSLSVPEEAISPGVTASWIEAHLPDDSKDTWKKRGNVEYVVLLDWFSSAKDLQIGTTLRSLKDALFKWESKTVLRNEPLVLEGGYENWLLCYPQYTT

[5] = target: T6, Flag-USP8 middle region (aa 314–714) (UniProt P40818); experiment: as above
T6 sequence: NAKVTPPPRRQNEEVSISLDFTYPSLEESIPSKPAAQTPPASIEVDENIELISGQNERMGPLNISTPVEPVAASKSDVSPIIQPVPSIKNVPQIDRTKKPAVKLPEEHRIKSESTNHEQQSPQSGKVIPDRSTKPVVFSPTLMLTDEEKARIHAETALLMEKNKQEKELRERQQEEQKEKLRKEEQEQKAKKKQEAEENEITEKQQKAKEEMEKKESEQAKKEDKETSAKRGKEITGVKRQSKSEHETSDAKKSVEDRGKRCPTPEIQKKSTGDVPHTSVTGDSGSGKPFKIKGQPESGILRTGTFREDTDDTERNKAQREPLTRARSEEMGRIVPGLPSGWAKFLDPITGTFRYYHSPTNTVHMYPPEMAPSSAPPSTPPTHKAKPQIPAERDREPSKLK

| binding (GST-USP8) | binding [1] | binding [2] | binding (Flag-USP8 (WT)) | binding [3] | binding [4] | binding [5] | Substance |
| --- | --- | --- | --- | --- | --- | --- | --- |
| binds | – | – | – | – | – | – | HA-PD-L1 (from UniProt Q9NZQ7 19-290) |
| – | binds | binds | binds | binds | binds | no binding | PD-L1 co-transfected for co-immunoprecipitation (pcDNA3-PD-L1 or pcDNA3-HA-PD-L1, not told for each panel) (from UniProt Q9NZQ7 19-290) |
